Key:
sIGF-1R(1-903) [1] = biological target: T1, sIGF-1R(1-903) (human, UniProt P08069 31-933); test: ITC, 25 °C, average of two measurements
T1 construct: also called soluble IGF-1R ectodomain
Method: (§1) Isothermal Titration Calorimetry (ITC). […] The reagents were co-dialyzed against PBS, pH 7.2. The protein solutions were adjusted to the concentrations listed above by dilution using PBS dialysate. […] The protein solutions were prepared as described above for the MAb binding experiments. All ITC experiments were performed on an ITC₂₀₀ microcalorimeter (MicroCal, LLC) at 25° C. […] IGF-1R bispecific antibodies. A four minute equilibration period was used between all injections with an initial delay of 60 seconds. Numerical integration of the data was performed using the ITC data analysis software supplied by MicroCal (Origin). ΔHA° (T) values were calculated based on the difference between the average heat liberated/absorbed during the binding phase of the injections and the average heat of dilution found once the receptor, IGF-1R, was saturated with MAb or BsAb.

[2] = biological target: T2, human IGF-1R on H322M non-small cell lung cancer cells (human, UniProt P08069 31-1367); test: cell-based or functional assay
[3] = biological target: T2, human IGF-1R on H322M non-small cell …; test: flow cytometry on H322M cells, anti-human Fab PE secondary (FIG. 55A)
Method: (§2) Cell lines were routinely cultured no greater than 20 passages. Flow cyotometric analysis of antibody binding to human cancer cells. Cells were lifted with cell dissociation buffer (Gibco catalog #13151-014), counted, washed and adjusted to 5×10⁶ cells/ml. Cells (2.5×10⁵; 50 uL) were added to each well of a 96-well round bottom plate (Costar #3799). Purified antibodies were tested at a starting concentration of 300 nM with serial half-log dilutions in FACS buffer. FACS buffer used throughout the assay was PBS (without Ca++/Mg++) containing 5% FBS. Samples were incubated on ice for 30 minutes, washed 3× with 200 uL FACS buffer and centrifuged at 1200 rpm for 3 minutes at 4° C. C2B8 (rituximab, IgG1) was used as a negative control. […] Samples were incubated for an additional 30 minutes on ice, shielded from light. Cells were washed as described above and resuspended in 100 μl FACS buffer containing propidium iodide (PI) for dead cell exclusion (BD Pharmingen, catalog# 51-66211E or 556463; use at 1:500 final in FACS buffer). Samples were run in triplicate using the FACSArray flow cytometer (Becton Dickinson) with 5000 live events collected per sample. Data analysis was performed using the GraphPad Prism version 5.0 software (GraphPad Software Inc., 11452 El Camino Real #215, San Diego, Calif. 92130). Results. […]

sIGF-1R(1-903) [4] = biological target: T1, sIGF-1R(1-903); test: equilibrium solution-phase SPR, free sIGF-1R(1-903) read on G11 surface
sIGF-1R(1-903) [5] = biological target: T1, sIGF-1R(1-903); test: SEC with static light scattering
[6] = biological target: T2, human IGF-1R on H322M non-small cell …; test: flow cytometry on H322M cells, anti-human Fc PE secondary (FIG. 55B)
Method: as §2

sIGF-1R(1-903) [7] = biological target: T1, sIGF-1R(1-903); test: equilibrium solution-phase SPR, free sIGF-1R(1-903) read on C06 surface
sIGF-1R(1-903) [8] = biological target: T1, sIGF-1R(1-903); test: ITC, 25 °C; footnote a: affinity too high for accurate measurement
Method: as §1

T1 sequence (P08069 31-933): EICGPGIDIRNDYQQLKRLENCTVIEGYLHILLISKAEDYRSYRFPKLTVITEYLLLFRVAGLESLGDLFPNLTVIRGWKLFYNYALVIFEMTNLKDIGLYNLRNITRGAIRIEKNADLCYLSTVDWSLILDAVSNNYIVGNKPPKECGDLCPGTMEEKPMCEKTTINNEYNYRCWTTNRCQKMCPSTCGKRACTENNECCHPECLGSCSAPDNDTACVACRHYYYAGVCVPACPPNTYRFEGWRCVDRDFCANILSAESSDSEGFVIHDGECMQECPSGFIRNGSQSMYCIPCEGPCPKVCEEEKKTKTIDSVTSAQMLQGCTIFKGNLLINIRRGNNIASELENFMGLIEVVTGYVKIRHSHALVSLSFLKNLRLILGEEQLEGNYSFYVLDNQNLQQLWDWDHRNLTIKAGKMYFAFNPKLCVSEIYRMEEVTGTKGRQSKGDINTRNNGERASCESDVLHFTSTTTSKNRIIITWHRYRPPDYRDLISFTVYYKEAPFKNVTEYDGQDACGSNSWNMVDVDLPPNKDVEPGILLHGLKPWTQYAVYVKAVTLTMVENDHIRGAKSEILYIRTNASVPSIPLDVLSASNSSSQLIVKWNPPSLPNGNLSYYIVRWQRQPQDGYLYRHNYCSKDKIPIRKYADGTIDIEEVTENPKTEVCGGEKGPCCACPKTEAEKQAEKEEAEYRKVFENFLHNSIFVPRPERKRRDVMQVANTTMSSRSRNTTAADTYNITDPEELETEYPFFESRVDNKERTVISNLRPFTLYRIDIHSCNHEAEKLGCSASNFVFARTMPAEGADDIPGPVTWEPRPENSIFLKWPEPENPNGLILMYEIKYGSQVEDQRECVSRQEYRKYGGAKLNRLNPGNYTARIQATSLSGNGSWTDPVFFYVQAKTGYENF

| Binder | -TΔS (sIGF-1R(1-903) [1]) [kcal/mol] | Kd (sIGF-1R(1-903) [1]) [nM] | ΔG (sIGF-1R(1-903) [1]) [kcal/mol] | ΔH° (sIGF-1R(1-903) [1]) [kcal/mol] | reduction of surface IGF-1R after 24 hours (FACS, H322M cells) [2] [%] | EC50 [3] [nM] | Kd (sIGF-1R(1-903) [4]) [nM] | n (#G11 specific binding sites) (sIGF-1R(1-903) [4]) | molecular weight of the complex (sIGF-1R(1-903) [5]) [MDa] | EC50 [6] [nM] | Kd (sIGF-1R(1-903) [7]) [nM] | n (#C06 specific binding sites) (sIGF-1R(1-903) [7]) | -TΔS (sIGF-1R(1-903) [8]) [kcal/mol] | Kd (sIGF-1R(1-903) [8]) [nM] | ΔG (sIGF-1R(1-903) [8]) [kcal/mol] |
| --- | --- | --- | --- | --- | --- | --- | --- | --- | --- | --- | --- | --- | --- | --- | --- |
| N-terminal anti-IGF-1R bispecific antibody (pXWU136/pXWU118) (bispecific antibody, human IgG1, kappa, G11 IgG1 with stabilized C06 scFv MJF045 (VL I83E) on the N-terminus of the heavy chain by a Gly/Ser linker; also called N-term; IGF-1R BsAb; N-IGF-1R bispecific antibody) heavy: DIQMTQSPLSLSASVGDRVTITCQASRDIRNYLNWYQQKPGKAPKLLIYDASSLQTGVPSRFGGSGSGTDFSFTIGSLQPEDEATYYCQQFDSLPHTFGQGTKLEIKGGGGSGGGGSGGGGSEVQLLESGGGLVQPGGSLRLSCAASGFTFSIYRMQWVRQAPGKGLEWVSGISPSGGTTWYADSVKGRFTISRDNSKNTLYLQMNSLRAEDTAVYYCARWSGGSGYAFDIWGQGTMVTVSSGGGGSGGGGSGGGGSGGGGSGGGGSEVQLLESGGGLVQPGGSLRLSCAASGFTFSNYPMYWVRQAPGKGLEWVSRISSSGGRTVYADSVKGRFTISRDNSKNTLYLQMNSLRAEDTAVYYCARDRWSRSAAEYGLGGYWGQGTLVTVSS[in this place human IgG1 constant region] light: DIQMTQSPDSLAVSLGERATINCKSSQSVLYSSNNKNYLAWYQQKPGQPPKLLIYLASTRESGVPDRFSGSGSGTDFTLTISSLQAEDVAVYYCQQYYSTWTFGQGTKVEIKRTVAAPSVFIFPPSDEQLKSGTASVVCLLNNFYPREAKVQWKVDNALQSGNSQESVTEQDSKDSTYSLSSTLTLSKADYEKHKVYACEVTHQGLSSPVTKSFNRGEC | 31.6 | 11 | -10.9 | -42.5 | > 70 | 0.47 | 0.7 | 1.5 | ~1.3 | 0.48 | 0.2 | 1.5 |  |  |  |
| C-terminal anti-IGF-1R bispecific antibody (pXWU135/pXWU118) (bispecific antibody, human IgG1, kappa, G11 IgG1 with stabilized C06 scFv MJF045 (VL I83E) on the C-terminus of the heavy chain by a Ser(Gly4Ser)3 linker; also called C-term; IGF-1R BsAb; C-IGF-1R bispecific antibody) heavy: EVQLLESGGGLVQPGGSLRLSCAASGFTFSNYPMYWVRQAPGKGLEWVSRISSSGGRTVYADSVKGRFTISRDNSKNTLYLQMNSLRAEDTAVYYCARDRWSRSAAEYGLGGYWGQGTLVTVSS[in this place human IgG1 constant region]SGGGGSGGGGSGGGGSDIQMTQSPLSLSASVGDRVTITCQASRDIRNYLNWYQQKPGKAPKLLIYDASSLQTGVPSRFGGSGSGTDFSFTIGSLQPEDEATYYCQQFDSLPHTFGQGTKLEIKGGGGSGGGGSGGGGSEVQLLESGGGLVQPGGSLRLSCAASGFTFSIYRMQWVRQAPGKGLEWVSGISPSGGTTWYADSVKGRFTISRDNSKNTLYLQMNSLRAEDTAVYYCARWSGGSGYAFDIWGQGTMVTVSS light: DIQMTQSPDSLAVSLGERATINCKSSQSVLYSSNNKNYLAWYQQKPGQPPKLLIYLASTRESGVPDRFSGSGSGTDFTLTISSLQAEDVAVYYCQQYYSTWTFGQGTKVEIKRTVAAPSVFIFPPSDEQLKSGTASVVCLLNNFYPREAKVQWKVDNALQSGNSQESVTEQDSKDSTYSLSSTLTLSKADYEKHKVYACEVTHQGLSSPVTKSFNRGEC |  |  |  | -53.9 | > 70 |  | 0.1 | 1.1 | ~1 |  | 0.03 | 1.1 | 42.3 | 3 | -11.6 |

— patent US20090130105A1 (Biogen, published 2009)
